# Some of the results follow.
# Experiments:
# Assay in all cases: glycan array binding signal (z-score within array); higher = stronger binding
# Settings in all cases: glycan notation: IUPAC condensed, linker removed
# [1] = target: Gal(a1-3)Gal(b1-4)GlcNAc(b1-2)Man
# How it was run: (§1)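 The binding signal is a Z-score computed within each array and averaged over linkers. Arrays of the same protein sequence at different concentrations or buffers were also averaged together. Data originate from 3228 arrays in the Consortium for Functional Glycomics database, kept only where the protein sequence was available.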
# [2] = target: Gal(a1-3)Gal(b1-4)GlcNAc(b1-2)Man(a1-3)[Gal(a1-3)Gal(b1-4)GlcNAc(b1-2)Man(a1-6)]Man(b1-4)GlcNAc(b1-4)GlcNAc
# How it was run: as §1
# [3] = target: Gal(a1-3)Gal(b1-4)GlcNAc(b1-3)GalNAc
# How it was run: as §1
# [4] = target: Gal(a1-3)Gal(b1-4)GlcNAc(b1-6)GalNAc
# How it was run: as §1
# [5] = target: Gal(a1-3)Gal(b1-4)[Fuc(a1-3)]GlcNAc
# How it was run: as §1
# [6] = target: Gal(a1-3)Gal(b1-4)[Fuc(a1-3)]GlcNAc(b1-2)Man(a1-3)[Gal(a1-3)Gal(b1-4)[Fuc(a1-3)]GlcNAc(b1-2)Man(a1-6)]Man(b1-4)GlcNAc(b1-4)GlcNAc
# How it was run: as §1
# [7] = target: Gal(a1-3)GalNAc
# How it was run: as §1
# [8] = target: Gal(a1-3)[Gal(a1-4)]Gal(b1-4)GlcNAc
# How it was run: as §1
# [9] = target: Gal(a1-4)Gal(b1-3)GlcNAc(b1-2)Man(a1-3)[Gal(a1-4)Gal(b1-3)GlcNAc(b1-2)Man(a1-6)]Man(b1-4)GlcNAc(b1-4)GlcNAc
# How it was run: as §1
# [10] = target: Gal(a1-4)Gal(b1-4)Glc
# How it was run: as §1
# [11] = target: Gal(a1-4)Gal(b1-4)GlcNAc
# How it was run: as §1
# [12] = target: Gal(a1-4)Gal(b1-4)GlcNAc(b1-2)Man(a1-3)[Gal(a1-4)Gal(b1-4)GlcNAc(b1-2)Man(a1-6)]Man(b1-4)GlcNAc(b1-4)GlcNAc
# How it was run: as §1
# [13] = target: Gal(a1-4)Gal(b1-4)GlcNAc(b1-3)Gal(b1-4)Glc
# How it was run: as §1
# [14] = target: Gal(a1-4)GlcNAc
# How it was run: as §1
# [15] = target: Gal(a1-6)Glc
# How it was run: as §1
# [16] = target: Gal(b1-2)Gal
# How it was run: as §1
# [17] = target: Gal(b1-3)Gal
# How it was run: as §1
# [18] = target: Gal(b1-3)Gal(b1-4)GlcNAc
# How it was run: as §1
# [19] = target: Gal(b1-3)GalNAc
# How it was run: as §1
# [20] = target: Gal(b1-3)GalNAc(a1-3)[Fuc(a1-2)]Gal(b1-4)Glc
# How it was run: as §1
# [21] = target: Gal(b1-3)GalNAc(a1-3)[Fuc(a1-2)]Gal(b1-4)GlcNAc
# How it was run: as §1
# [22] = target: Gal(b1-3)GalNAc(b1-3)Gal
# How it was run: as §1
binder,measurement,setting,value
Mg3lysM (Mycosphaerella graminicola) (protein) APQNPPTSCSAAPQPTGTGSPGTVCGSTTFTNYTVKAGDTLGAIAKQYNSGVCDIAKVNGIDNPDYIKPDQVLSIPANCVTPDNTSCVKPVPVITNTCVLGVGSTYTVKSGDSFSAIATSFNITLASLEARNPQIPNYDLIFPGQVINTPLCPNSVCDSIGTYVIESGDIFYNLAQSNNVTVGQLESLNVNVNVTDIHPGDIIILPHNCHNITASA,glycan array binding signal (z-score),[1],-0.16
same,glycan array binding signal (z-score),[2],-0.058
same,glycan array binding signal (z-score),[3],-0.048
same,glycan array binding signal (z-score),[4],-0.112
same,glycan array binding signal (z-score),[5],-0.151
same,glycan array binding signal (z-score),[6],-0.015
same,glycan array binding signal (z-score),[7],-0.094
same,glycan array binding signal (z-score),[8],-0.101
same,glycan array binding signal (z-score),[9],-0.065
same,glycan array binding signal (z-score),[10],0.062
same,glycan array binding signal (z-score),[11],-0.019
same,glycan array binding signal (z-score),[12],0.012
same,glycan array binding signal (z-score),[13],-0.14
same,glycan array binding signal (z-score),[14],-0.107
same,glycan array binding signal (z-score),[15],-0.133
same,glycan array binding signal (z-score),[16],-0.058
same,glycan array binding signal (z-score),[17],-0.076
same,glycan array binding signal (z-score),[18],-0.049
same,glycan array binding signal (z-score),[19],-0.058
same,glycan array binding signal (z-score),[20],-0.097
same,glycan array binding signal (z-score),[21],-0.046
same,glycan array binding signal (z-score),[22],0.131
